# Laboratory results reported in PubChem BioAssay (NCATS).
# Where “and” joins values, the source holds several entries; their conditions need not be identical. Equal entries are not always repeated. This is one part of the list. The main result of the screen is listed elsewhere. These columns were measured beside it and carry no call. For some of these results: Most of these compounds were active or inconclusive in the main read-out, so they are no random draw. Potencies come from curve fits of mixed quality, noted in brackets.
# Legend:
# [1] = qHTS drug screen for cell cycle checkpoint inhibitors in PARPi-resistant BRCA-mutant ovarian cancer cell lines. (AID 1963452); conditions: PEO1/OlaR viability, CellTiter-Glo luminescence, 96 h
# Method in brief: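 PEO1, PEO4 and PEO1/OlaR ovarian cancer cells, 600 per well, exposed 96 h at 37C to a dilution series. Viability read by CellTiter-Glo luminescence, normalized to DMSO and empty wells; activity summarized as Z-AUC.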
# [2] = qHTS for identification of novel therapeutic agents for treatment of microphthalmiaassociated transcription factor (MiT) renal cell carcinoma (RCC) (AID 1963991); conditions: TFE3-RCC viability, CellTiter-Glo, 48 h
# Method in brief: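 Three TFE3-fusion RCC lines (UOK109, UOK124, UOK145), 500 cells/well in complete medium, were treated with MIPE 4.0 compounds for 48 hours at 37 C. Viability was by CellTiter-Glo luminescence, normalized to DMSO (100%) and empty wells (0%); curves fitted over 11 concentrations.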
# [3] = measured here: PEO1 parental viability
# [4] = measured here: UOK124 cell viability
# [5] = measured here: UOK145 cell viability
# Tags tell the direction and shape of the fitted curve.
Structure (SMILES),"AC50 [1, 3]",AC50 ([1]; measured here: PEO4 viability),"AC50 [2, 4]","AC50 [2, 5]"
Nc1nc(F)nc2c1ncn2[C@@H]1O[C@H](COP(=O)(O)O)[C@@H](O)[C@@H]1O,"4.9 µM [falling, full curve] and 4.9 µM [falling, partial curve]","13.8 µM [falling, partial curve] and 5.49 µM [falling, full curve, poor fit]",–,–
COc1ncc(-c2ccc3nccc(-c4ccnnc4)c3c2)cc1NS(=O)(=O)c1ccc(F)cc1F,"0.0871 µM [falling, full curve]","0.0977 µM [falling, full curve]","29.6 nM [falling, full curve]","8.33 nM [falling, full curve]"
CC(C)[C@](O)(c1ccc2cc(OC(F)F)c(OC(F)F)cc2c1)c1cn[nH]n1,"15.5 µM [falling, partial curve, poor fit]","13.8 µM [falling, single point]",–,–
CC[C@@]1(O)C(=O)OCc2c1cc1n(c2=O)Cc2cc3cc(O)ccc3nc2-1,"0.0078 µM [falling, full curve]","0.0549 µM [falling, full curve]","264 nM [falling, full curve]","264 nM [falling, full curve]"
C/C(=C\C(=O)Nc1ccccc1C(=O)O)c1ccc2ccccc2c1,"15.5 µM [falling, single point]","15.5 µM [falling, partial curve]",–,–
O=C(Nc1cc(C(F)(F)F)cc(C(F)(F)F)c1)c1cc(Cl)ccc1O,"1.74 µM [falling, full curve]","0.616 µM [falling, full curve]","2640 nM [falling, partial curve]","833 nM [falling, full curve]"
COc1cc2nc(-c3ccc(N4CCN(C)CC4)cc3)nc(NCCN3CCOCC3)c2cc1OC,"24.5 µM [falling, single point]","12.3 µM [falling, partial curve]","469 nM [falling, full curve]","166 nM [falling, full curve]"
Nc1cc(C(F)(F)F)c(-c2cc(N3CCOCC3)nc(N3CCOCC3)n2)cn1,"0.977 µM [falling, full curve]","1.55 µM [falling, full curve]","1320 nM [falling, full curve]","418 nM [falling, full curve]"
CC(C)(O)c1cc2nc(-c3cnc(N)nc3)nc(N3CCOCC3)c2s1,"1.23 µM [falling, full curve]","0.977 µM [falling, full curve]","264 nM [falling, full curve]","132 nM [falling, full curve]"
Oc1ccc(Nc2nc(-c3ccc(Cl)cc3)cs2)cc1,"15.5 µM [falling, partial curve, poor fit]","13.8 µM [falling, partial curve]",–,–
Nc1ccc(-c2ccc3ncc4ccc(=O)n(-c5cccc(C(F)(F)F)c5)c4c3c2)cn1,"0.0776 µM [falling, full curve]","0.049 µM [falling, full curve]","83.3 nM [falling, full curve]","9.35 nM [falling, full curve]"
COc1cc(Nc2cnc(C#N)c(O[C@H](C)CN(C)C)n2)ncc1-c1cnn(C)c1,"2.75 µM [falling, full curve]","2.19 µM [falling, full curve]",–,–
CNC(=O)c1ccccc1Nc1nc(Nc2ccc3c(c2OC)CCC[C@H](N2CCN(CCO)CC2)C3)ncc1Cl,"4.36 µM [falling, partial curve]","1.95 µM [falling, full curve]",–,–
CCN1CCN(CC(=O)Nc2ccc(-c3cccc4c(=O)cc(N5CCOCC5)oc34)c3sc4ccccc4c23)CC1,"2.13 µM [falling, full curve]","3.01 µM [falling, partial curve]","4690 nM [falling, full curve]","1480 nM [falling, partial curve]"
CC(=O)O[C@@]12CO[C@@H]1C[C@H](O)[C@@]1(C)C(=O)[C@H](O)C3=C(C)[C@@H](OC(=O)[C@H](O)[C@@H](NC(=O)OC(C)(C)C)c4ccccc4)C[C@@](O)([C@@H](OC(=O)c4ccccc4)[C@H]21)C3(C)C,"0.0123 µM [falling, full curve]","0.0347 µM [falling, full curve, poor fit]",–,–
